Laboratory results from the supplement of paper PMC12217912.
The list shows a part of the results. The full chains were built here from the parent and the listed change. Inactive controls read about 0.05.

B1: TEV protease; numbered along this chain (parent)
chain: MGESLFKGPRDYNPISSSICHLTNESDGHTTSLYGIGFGPFIITNKHLFRRNNGTLVVQSLHGVFKVKDTTTLQQHLVDGRDMIIIRMPKDFPPFPQKLKFREPQREERICLVTTNFQTKSMSSMVSDTSCTFPSGDGIFWKHWIQTKDGQCGSPLVSTRDGFIVGIHSASNFTNTNNYFTSVPKNFMELLTNQEAQQWVSGWRLNADSVLWGGHKVFMVKPEEPFQPVKEATQL

Variants of: B1
Assay: raw area under fraction-flipped curve 0-4 h after induction (AUC4h, not background-subtracted), DNA-recorder readout of cleavage of the substrate (dimensionless); higher = more cleavage of the substrate by the protease variant
Settings: temperature: 34 °C; time window: 0-4 h after rhamnose induction
Description: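 In vivo DNA recorder in E. coli TOP10(DE3) ΔrhaA at 34 °C. Each TEVp single-site mutant (parent TEVp 0) is paired with a single-site variant of the 7-mer TEVs (canonical ENLYFQ|S). The substrate sits between flexible linkers in a Bxb1-sfGFP-TEVs-SsrA fusion, so cleavage stabilises Bxb1 and speeds flipping of a recombination array, read by NGS. The value is the raw area under the fraction-flipped curve over 0-4 h after rhamnose induction (AUC4h), with ≥20 reads per time point. It is not background-subtracted; inactive controls average about 0.047.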
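Also: Bxb1 expression induced with 0.2% (w/v) L-rhamnose at OD600 near 0.5, cultures sampled hourly, flipped fraction per protease–substrate barcode pair counted by paired-end Illumina sequencing.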

Variant	area with substrate ECLYFQS	area with substrate EDLYFQS	area with substrate EELYFQS	area with substrate EFLYFQS	area with substrate EGLYFQS	area with substrate EHLYFQS	area with substrate EILYFQS	area with substrate EKLYFQS	area with substrate ELLYFQS	area with substrate EMLYFQS	area with substrate EPLYFQS	area with substrate EQLYFQS	area with substrate ERLYFQS	area with substrate ESLYFQS	area with substrate ETLYFQS	area with substrate EVLYFQS	area with substrate EWLYFQS	area with substrate EYLYFQS
MGESLFKGPRDYNPISSSICHLTNESDGHTTSWYGIGFGPFIITNKHLFRRNNGTLVVQSLHGVFKVKDTTTLQQHLVDGRDMIIIRMPKDFPPFPQKLKFREPQREERICLVTTNFQTKSMSSMVSDTSCTFPSGDGIFWKHWIQTKDGQCGSPLVSTRDGFIVGIHSASNFTNTNNYFTSVPKNFMELLTNQEAQQWVSGWRLNADSVLWGGHKVFMVKPEEPFQPVKEATQL [L33W]	0.064	0.0771	0.0364	0.0656	0.0444	0.0687	0.05	0.061	0.0555	0.0612	0.0612	0.0597	0.0572	0.0592	0.0539	0.0661	0.0592	–
MGESLFKGPRDYNPISSSICHLTNESDGHTTSGYGIGFGPFIITNKHLFRRNNGTLVVQSLHGVFKVKDTTTLQQHLVDGRDMIIIRMPKDFPPFPQKLKFREPQREERICLVTTNFQTKSMSSMVSDTSCTFPSGDGIFWKHWIQTKDGQCGSPLVSTRDGFIVGIHSASNFTNTNNYFTSVPKNFMELLTNQEAQQWVSGWRLNADSVLWGGHKVFMVKPEEPFQPVKEATQL [L33G]	0.0966	–	0.115	–	0.16	–	0.0744	0.0616	0.0956	0.127	–	0.107	0.0846	0.166	0.121	0.0867	0.0909	–
MGESLFKGPRDYNPISSSICHLTNESDGHTTSLYGFGFGPFIITNKHLFRRNNGTLVVQSLHGVFKVKDTTTLQQHLVDGRDMIIIRMPKDFPPFPQKLKFREPQREERICLVTTNFQTKSMSSMVSDTSCTFPSGDGIFWKHWIQTKDGQCGSPLVSTRDGFIVGIHSASNFTNTNNYFTSVPKNFMELLTNQEAQQWVSGWRLNADSVLWGGHKVFMVKPEEPFQPVKEATQL [I36F]	0.09	–	0.0919	–	0.0769	–	0.079	0.0987	0.0923	0.0974	0.0684	–	0.0809	0.0861	–	–	0.0734	–
MGESLFKGPRDYNPISSSICHLTNESDGHTTSLYGQGFGPFIITNKHLFRRNNGTLVVQSLHGVFKVKDTTTLQQHLVDGRDMIIIRMPKDFPPFPQKLKFREPQREERICLVTTNFQTKSMSSMVSDTSCTFPSGDGIFWKHWIQTKDGQCGSPLVSTRDGFIVGIHSASNFTNTNNYFTSVPKNFMELLTNQEAQQWVSGWRLNADSVLWGGHKVFMVKPEEPFQPVKEATQL [I36Q]	0.0566	–	0.0653	–	0.072	0.0663	0.0658	0.0724	0.0633	0.0751	–	0.0643	0.07	0.0777	–	0.0588	0.0657	–
MGESLFKGPRDYNPISSSICHLTNESDGHQTSLYGIGFGPFIITNKHLFRRNNGTLVVQSLHGVFKVKDTTTLQQHLVDGRDMIIIRMPKDFPPFPQKLKFREPQREERICLVTTNFQTKSMSSMVSDTSCTFPSGDGIFWKHWIQTKDGQCGSPLVSTRDGFIVGIHSASNFTNTNNYFTSVPKNFMELLTNQEAQQWVSGWRLNADSVLWGGHKVFMVKPEEPFQPVKEATQL [T30Q]	0.109	–	0.0984	–	0.0816	0.104	–	–	0.0782	–	0.0642	0.133	0.104	0.0848	–	0.112	–	0.1
MGESLFKGPRDYNPISSSICHLTNESDGHNTSLYGIGFGPFIITNKHLFRRNNGTLVVQSLHGVFKVKDTTTLQQHLVDGRDMIIIRMPKDFPPFPQKLKFREPQREERICLVTTNFQTKSMSSMVSDTSCTFPSGDGIFWKHWIQTKDGQCGSPLVSTRDGFIVGIHSASNFTNTNNYFTSVPKNFMELLTNQEAQQWVSGWRLNADSVLWGGHKVFMVKPEEPFQPVKEATQL [T30N]	0.0911	0.107	0.101	–	0.0549	–	0.0827	–	0.0861	0.0923	0.131	0.107	0.0796	0.0986	0.0749	0.0892	0.0885	0.056
MGESLFKGPRDYNPISSSICHLTNESDGHTTSLYWIGFGPFIITNKHLFRRNNGTLVVQSLHGVFKVKDTTTLQQHLVDGRDMIIIRMPKDFPPFPQKLKFREPQREERICLVTTNFQTKSMSSMVSDTSCTFPSGDGIFWKHWIQTKDGQCGSPLVSTRDGFIVGIHSASNFTNTNNYFTSVPKNFMELLTNQEAQQWVSGWRLNADSVLWGGHKVFMVKPEEPFQPVKEATQL [G35W]	0.0631	0.0547	–	0.0721	–	0.0405	–	0.0611	–	–	–	0.0496	0.0334	0.0375	–	–	0.0705	–
MGESLFKGPRDYNPISSSICHLTNESDGHTTSLYGIMFGPFIITNKHLFRRNNGTLVVQSLHGVFKVKDTTTLQQHLVDGRDMIIIRMPKDFPPFPQKLKFREPQREERICLVTTNFQTKSMSSMVSDTSCTFPSGDGIFWKHWIQTKDGQCGSPLVSTRDGFIVGIHSASNFTNTNNYFTSVPKNFMELLTNQEAQQWVSGWRLNADSVLWGGHKVFMVKPEEPFQPVKEATQL [G37M]	0.063	0.0922	–	–	0.0718	0.0798	–	0.0704	–	0.0805	–	0.0963	0.0907	0.0741	0.0724	0.0788	0.0957	0.0885
MGESLFKGPRDYNPISSSICHLTNESDGHTTSLYGIVFGPFIITNKHLFRRNNGTLVVQSLHGVFKVKDTTTLQQHLVDGRDMIIIRMPKDFPPFPQKLKFREPQREERICLVTTNFQTKSMSSMVSDTSCTFPSGDGIFWKHWIQTKDGQCGSPLVSTRDGFIVGIHSASNFTNTNNYFTSVPKNFMELLTNQEAQQWVSGWRLNADSVLWGGHKVFMVKPEEPFQPVKEATQL [G37V]	0.0662	0.0866	0.129	–	–	0.092	–	0.0795	0.0818	–	0.0934	0.102	0.0919	0.0638	0.111	0.0741	0.084	0.104
MGESLFKGPRDYNPISSSICHLTNESDGSTTSLYGIGFGPFIITNKHLFRRNNGTLVVQSLHGVFKVKDTTTLQQHLVDGRDMIIIRMPKDFPPFPQKLKFREPQREERICLVTTNFQTKSMSSMVSDTSCTFPSGDGIFWKHWIQTKDGQCGSPLVSTRDGFIVGIHSASNFTNTNNYFTSVPKNFMELLTNQEAQQWVSGWRLNADSVLWGGHKVFMVKPEEPFQPVKEATQL [H29S]	0.11	–	–	–	–	–	0.0953	–	–	–	0.0356	0.14	0.0964	0.124	–	0.123	0.0625	–
MGESLFKGPRDYNPISSSICHLTNESDGVTTSLYGIGFGPFIITNKHLFRRNNGTLVVQSLHGVFKVKDTTTLQQHLVDGRDMIIIRMPKDFPPFPQKLKFREPQREERICLVTTNFQTKSMSSMVSDTSCTFPSGDGIFWKHWIQTKDGQCGSPLVSTRDGFIVGIHSASNFTNTNNYFTSVPKNFMELLTNQEAQQWVSGWRLNADSVLWGGHKVFMVKPEEPFQPVKEATQL [H29V]	0.128	0.148	–	–	–	0.153	0.072	0.113	0.099	0.144	–	–	0.104	0.135	0.11	–	0.107	0.11
MGESLFKGPRDYNPISSSICHLTNESDGHTDSLYGIGFGPFIITNKHLFRRNNGTLVVQSLHGVFKVKDTTTLQQHLVDGRDMIIIRMPKDFPPFPQKLKFREPQREERICLVTTNFQTKSMSSMVSDTSCTFPSGDGIFWKHWIQTKDGQCGSPLVSTRDGFIVGIHSASNFTNTNNYFTSVPKNFMELLTNQEAQQWVSGWRLNADSVLWGGHKVFMVKPEEPFQPVKEATQL [T31D]	0.114	0.132	–	–	–	0.122	0.11	0.109	0.096	0.131	0.113	0.113	0.188	0.118	0.144	0.0952	0.0837	–
MGESLFKGPRDYNPISSSICHLTNESDGHTSSLYGIGFGPFIITNKHLFRRNNGTLVVQSLHGVFKVKDTTTLQQHLVDGRDMIIIRMPKDFPPFPQKLKFREPQREERICLVTTNFQTKSMSSMVSDTSCTFPSGDGIFWKHWIQTKDGQCGSPLVSTRDGFIVGIHSASNFTNTNNYFTSVPKNFMELLTNQEAQQWVSGWRLNADSVLWGGHKVFMVKPEEPFQPVKEATQL [T31S]	0.117	–	0.114	0.0941	0.084	–	0.0868	0.11	–	0.103	–	0.106	0.0908	0.0916	0.109	0.105	0.144	0.0932
MGESLFKGPRDYNPISSSICHLTNESDGHTTSLYGIGFHPFIITNKHLFRRNNGTLVVQSLHGVFKVKDTTTLQQHLVDGRDMIIIRMPKDFPPFPQKLKFREPQREERICLVTTNFQTKSMSSMVSDTSCTFPSGDGIFWKHWIQTKDGQCGSPLVSTRDGFIVGIHSASNFTNTNNYFTSVPKNFMELLTNQEAQQWVSGWRLNADSVLWGGHKVFMVKPEEPFQPVKEATQL [G39H]	0.0365	–	0.0448	–	0.0515	–	0.0406	0.0416	0.0449	0.0457	0.0532	0.0377	0.0536	0.0528	0.0516	0.0411	0.073	0.0501
MGESLFKGPRDYNPISSSICHLTNESDGHTTSLYGIGFNPFIITNKHLFRRNNGTLVVQSLHGVFKVKDTTTLQQHLVDGRDMIIIRMPKDFPPFPQKLKFREPQREERICLVTTNFQTKSMSSMVSDTSCTFPSGDGIFWKHWIQTKDGQCGSPLVSTRDGFIVGIHSASNFTNTNNYFTSVPKNFMELLTNQEAQQWVSGWRLNADSVLWGGHKVFMVKPEEPFQPVKEATQL [G39N]	0.0455	0.0478	–	–	0.048	–	–	0.0424	–	–	–	0.0255	0.0329	0.0344	0.0393	0.0419	0.0409	0.0423
MGESLFKGPRDYNPISSSICHLTNESDKHTTSLYGIGFGPFIITNKHLFRRNNGTLVVQSLHGVFKVKDTTTLQQHLVDGRDMIIIRMPKDFPPFPQKLKFREPQREERICLVTTNFQTKSMSSMVSDTSCTFPSGDGIFWKHWIQTKDGQCGSPLVSTRDGFIVGIHSASNFTNTNNYFTSVPKNFMELLTNQEAQQWVSGWRLNADSVLWGGHKVFMVKPEEPFQPVKEATQL [G28K]	0.0896	0.118	0.108	–	0.0665	–	0.0509	0.0901	–	0.12	–	0.102	0.0769	0.102	–	–	0.0787	–
MGESLFKGPRDYNPISSSICHLTNESDGHTTSLYGIGNGPFIITNKHLFRRNNGTLVVQSLHGVFKVKDTTTLQQHLVDGRDMIIIRMPKDFPPFPQKLKFREPQREERICLVTTNFQTKSMSSMVSDTSCTFPSGDGIFWKHWIQTKDGQCGSPLVSTRDGFIVGIHSASNFTNTNNYFTSVPKNFMELLTNQEAQQWVSGWRLNADSVLWGGHKVFMVKPEEPFQPVKEATQL [F38N]	0.0959	0.0931	0.098	–	–	–	0.0832	–	–	0.0676	–	0.0834	0.0721	–	–	–	–	–
MGESLFKGPRDYNPISSSICHLTNESDGHTTSLYGIGTGPFIITNKHLFRRNNGTLVVQSLHGVFKVKDTTTLQQHLVDGRDMIIIRMPKDFPPFPQKLKFREPQREERICLVTTNFQTKSMSSMVSDTSCTFPSGDGIFWKHWIQTKDGQCGSPLVSTRDGFIVGIHSASNFTNTNNYFTSVPKNFMELLTNQEAQQWVSGWRLNADSVLWGGHKVFMVKPEEPFQPVKEATQL [F38T]	0.084	0.141	–	–	0.0817	0.0815	0.06	0.0762	0.0739	–	0.109	0.097	0.0802	0.0936	–	0.0622	0.0803	0.103
